Results from paper PMC5892938.
The list shows a part of the results. At the low end of the ranking the order means little.

target: GST-SBP-SLBP (stem-loop binding protein) (UniProt Q14493); assay: targeted RNA Bind-n-Seq; conditions: RBNS binding buffer: 25 mM Tris pH 7.5, 150 mM KCl, 3 mM MgCl2, 0.1% Tween, 0.5 mg/mL BSA, 1 mM DTT; 27 nM protein, 750 pM RNA pool; temperature not stated; high values mean tight binding;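 further: DESeq read counts versus GST-SBP nonspecific binding control pulldown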

| Sequence | binding signal (log2 fold change) |
| --- | --- |
| GGUCACGUCUCAAUCAACUCAAUCUCAGGAGUUUCCUCCUGUUUACUCAACAGCUCGCAGUCAAG | 0.14 |
| GGUCACGUCUCAAUCAACUCAUCCUCAGGAGUUUUCUCCUGUUAAGUCAACAGCUCGCAGUCAAG | 0.227 |
| GGUCACGUCUCAAUCAACUCUUUUCCAGGAGUUUACUCCUGCUAAUUCAACAGCUCGCAGUCAAG | 0.122 |
| GGUCACGUCUCAAUCAACUCUCCCGAGGGGGGGAAAACCCCUUUACCCUCAACAUCAACAGCUCGCAGUCAAG | -0.386 |
| GGUCACGUCUCAAUCAACUCAAAAGAGGGGGGGAAAACCCCUUUGCCCUCAACUUCAACAGCUCGCAGUCAAG | -0.159 |
| GGUCACGUCUCAAUCAACUCUCUAGAGGGGGGGAAAACCCCUUUGCCCUCCAAUUCAACAGCUCGCAGUCAAG | 0.201 |
| GGUCACGUCUCAAUCAACUCACACGAGGGGGGGAAAACCCCUUUACCCUCUAACUCAACAGCUCGCAGUCAAG | 0.27 |
| GGUCACGUCUCAAUCAACUCAACGCCAGGAGUUUCCUCCUGUUAUCUCAACAGCUCGCAGUCAAG | 0.0878 |
| GGUCACGUCUCAAUCAACUCAAGUCCCAGGGAAAACCCUGGCAAUCUCAACAGCUCGCAGUCAAG | -0.0349 |
| GGUCACGUCUCAAUCAACUCUUUCCCCAGGGAAAUCCCUGGCAAUCUCAACAGCUCGCAGUCAAG | -0.256 |
| GGUCACGUCUCAAUCAACUCUUUUUCAGGAGUUUACUCCUGCAAAUUCAACAGCUCGCAGUCAAG | -0.145 |
| GGUCACGUCUCAAUCAACUCACUAGAGGGGGGGAAAACCCCUUUACCCUCAUCGUCAACAGCUCGCAGUCAAG | 0.311 |
| GGUCACGUCUCAAUCAACUCAAUUCCCAGGGAAAGCCCUGGCAAACUCAACAGCUCGCAGUCAAG | -0.0904 |
| GGUCACGUCUCAAUCAACUCAUCUCCAGGAGUUUUCUCCUGCUUACUCAACAGCUCGCAGUCAAG | 0.253 |
| GGUCACGUCUCAAUCAACUCUAUGUCAGGAGUUUACUCCUGUUUUUUCAACAGCUCGCAGUCAAG | -0.0252 |
| GGUCACGUCUCAAUCAACUCAAUCCCAGGAGUUUGCUCCUGCAUAUUCAACAGCUCGCAGUCAAG | 0.355 |
| GGUCACGUCUCAAUCAACUCUAAAGAGGGGGGGAAAACCCCUUUACCCUCACACUCAACAGCUCGCAGUCAAG | -0.058 |
| GGUCACGUCUCAAUCAACUCAUUUCCCAGGGAAAACCCUGGUUUACUCAACAGCUCGCAGUCAAG | -0.0903 |
| GGUCACGUCUCAAUCAACUCUUCCCCAGGAGUUUCCUCCUGUUUUUUCAACAGCUCGCAGUCAAG | 0.00201 |
| GGUCACGUCUCAAUCAACUCUCUAGAGGGGGGGAAAACCCCUUUACCCUCCAUGUCAACAGCUCGCAGUCAAG | -0.298 |
| GGUCACGUCUCAAUCAACUCAAUCUCAGGAGUUUUCUCCUGUAAAUUCAACAGCUCGCAGUCAAG | -0.217 |
| GGUCACGUCUCAAUCAACUCUUUCCCCAGGGAAACCCCUGGUAAUUUCAACAGCUCGCAGUCAAG | 0.0986 |
| GGUCACGUCUCAAUCAACUCUUCCUCAGGAGUUUACUCCUGUAAAUUCAACAGCUCGCAGUCAAG | -0.144 |
| GGUCACGUCUCAAUCAACUCUUUCCCAGGAGUUUACUCCUGCAUACUCAACAGCUCGCAGUCAAG | -0.159 |
| GGUCACGUCUCAAUCAACUCAUUCUCAGGAGUUUUCUCCUGUUUAUUCAACAGCUCGCAGUCAAG | 0.0954 |

| Sequence | binding signal (log2 fold change) |
| --- | --- |
| GGUCACGUCUCAAUCAACUCUUCCCCCAGGGAAAGCCCUGGCAUAUUCAACAGCUCGCAGUCAAG | -0.0277 |
| GGUCACGUCUCAAUCAACUCAUCCUCAGGAGUUUGCUCCUGCAUUUUCAACAGCUCGCAGUCAAG | 0.174 |
| GGUCACGUCUCAAUCAACUCUUCGUCCAGGGAAAUCCCUGGUAUAUUCAACAGCUCGCAGUCAAG | 0.13 |
| GGUCACGUCUCAAUCAACUCCUUCGAGGGGGGGAAAACCCCUUUACCCUCUUCUUCAACAGCUCGCAGUCAAG | -0.183 |
| GGUCACGUCUCAAUCAACUCAUCCUCCAGGGAAAUCCCUGGCAUUCUCAACAGCUCGCAGUCAAG | -0.0223 |
| GGUCACGUCUCAAUCAACUCUUUCCCCAGGGAAAGCCCUGGUAUUCUCAACAGCUCGCAGUCAAG | 0.013 |
| GGUCACGUCUCAAUCAACUCAUUUUCCAGGGAAAGCCCUGGCAUUUUCAACAGCUCGCAGUCAAG | -0.0522 |
| GGUCACGUCUCAAUCAACUCUAUCCCCAGGGAAAUCCCUGGUAAUUUCAACAGCUCGCAGUCAAG | 0.00975 |
| GGUCACGUCUCAAUCAACUCAUCGCCCAGGGAAACCCCUGGUAAAUUCAACAGCUCGCAGUCAAG | -0.429 |
| GGUCACGUCUCAAUCAACUCAUAAGAGGGGGGGAAAACCCCUUUGCCCUCAAAAUCAACAGCUCGCAGUCAAG | 0.153 |
| GGUCACGUCUCAAUCAACUCAUCCCCAGGAGUUUCCUCCUGUUUAGUCAACAGCUCGCAGUCAAG | 0.0392 |
| GGUCACGUCUCAAUCAACUCAACUUCAGGAGUUUCCUCCUGUUAUUUCAACAGCUCGCAGUCAAG | 0.0416 |
| GGUCACGUCUCAAUCAACUCAUCCUCCAGGGAAAUCCCUGGCAAUUUCAACAGCUCGCAGUCAAG | 0.131 |
| GGUCACGUCUCAAUCAACUCUUCCUCAGGAGUUUUCUCCUGUAAAUUCAACAGCUCGCAGUCAAG | -0.029 |
| GGUCACGUCUCAAUCAACUCUUUCCCCAGGGAAAGCCCUGGUUAUUUCAACAGCUCGCAGUCAAG | 0.0687 |
| GGUCACGUCUCAAUCAACUCUUUCCCCAGGGAAAUCCCUGGCAAUGUCAACAGCUCGCAGUCAAG | -0.158 |
| GGUCACGUCUCAAUCAACUCAUCUCCCAGGGAAACCCCUGGCAUUCUCAACAGCUCGCAGUCAAG | 0.175 |
| GGUCACGUCUCAAUCAACUCAUCGCCAGGAGUUUACUCCUGUAAUUUCAACAGCUCGCAGUCAAG | -0.0688 |
| GGUCACGUCUCAAUCAACUCAGUCUCCAGGGAAACCCCUGGUUUUUUCAACAGCUCGCAGUCAAG | 0.14 |
| GGUCACGUCUCAAUCAACUCUUCUCCCAGGGAAAACCCUGGCUUACUCAACAGCUCGCAGUCAAG | -0.123 |
| GGUCACGUCUCAAUCAACUCUUUUCCCAGGGAAAACCCUGGCAAUCUCAACAGCUCGCAGUCAAG | -0.151 |
| GGUCACGUCUCAAUCAACUCUUUUUCAGGAGUUUUCUCCUGUAUAUUCAACAGCUCGCAGUCAAG | -0.189 |
| GGUCACGUCUCAAUCAACUCAGUCUCCAGGGAAAACCCUGGCAUUCUCAACAGCUCGCAGUCAAG | 0.138 |
| GGUCACGUCUCAAUCAACUCAACUCCAGGAGUUUUCUCCUGUAAUUUCAACAGCUCGCAGUCAAG | 0.198 |
| GGUCACGUCUCAAUCAACUCAACUUCCAGGGAAAGCCCUGGCUUAUUCAACAGCUCGCAGUCAAG | 0.00177 |

| Sequence | binding signal (log2 fold change) |
| --- | --- |
| GGUCACGUCUCAAUCAACUCAAAAGAGGGGGGGAAAACCCCUUUACCCUCGUUAUCAACAGCUCGCAGUCAAG | -0.37 |
| GGUCACGUCUCAAUCAACUCUUUCUCAGGAGUUUACUCCUGCUUAUUCAACAGCUCGCAGUCAAG | 0.0167 |
| GGUCACGUCUCAAUCAACUCUUACGAGGGGGGGAAAACCCCUUUACCCUCUUCAUCAACAGCUCGCAGUCAAG | 0.218 |
| GGUCACGUCUCAAUCAACUCAGUUCCAGGAGUUUCCUCCUGCAAAUUCAACAGCUCGCAGUCAAG | -0.119 |
| GGUCACGUCUCAAUCAACUCAUUCUCAGGAGUUUUCUCCUGUAUAUUCAACAGCUCGCAGUCAAG | 0.0283 |
| GGUCACGUCUCAAUCAACUCAUUUCCAGGAGUUUACUCCUGCAUAUUCAACAGCUCGCAGUCAAG | -0.0303 |
| GGUCACGUCUCAAUCAACUCAUUUCCAGGAGUUUUCUCCUGUUUACUCAACAGCUCGCAGUCAAG | 0.072 |
| GGUCACGUCUCAAUCAACUCUUCGUCCAGGGAAAGCCCUGGUUAUUUCAACAGCUCGCAGUCAAG | 0.0753 |
| GGUCACGUCUCAAUCAACUCAAUUUCAGGAGUUUUCUCCUGCUUACUCAACAGCUCGCAGUCAAG | -0.0241 |
| GGUCACGUCUCAAUCAACUCAGUCUCCAGGGAAAACCCUGGCAAUUUCAACAGCUCGCAGUCAAG | -0.0828 |
| GGUCACGUCUCAAUCAACUCAGUCCCAGGAGUUUCCUCCUGUUUUUUCAACAGCUCGCAGUCAAG | -0.147 |
| GGUCACGUCUCAAUCAACUCAUUUUCAGGAGUUUUCUCCUGUUUUUUCAACAGCUCGCAGUCAAG | -0.129 |
| GGUCACGUCUCAAUCAACUCUUCUCCAGGAGUUUCCUCCUGUAAACUCAACAGCUCGCAGUCAAG | -0.023 |
| GGUCACGUCUCAAUCAACUCUAUCUCAGGAGUUUUCUCCUGCUUUUUCAACAGCUCGCAGUCAAG | 0.0297 |
| GGUCACGUCUCAAUCAACUCAAUCUCAGGAGUUUACUCCUGCUUAGUCAACAGCUCGCAGUCAAG | 0.223 |
| GGUCACGUCUCAAUCAACUCUAAGGAGGGGGGGAAAACCCCUUUACCCUCAUUCUCAACAGCUCGCAGUCAAG | 0.0292 |
| GGUCACGUCUCAAUCAACUCUUUCUCAGGAGUUUUCUCCUGUAUUCUCAACAGCUCGCAGUCAAG | -0.0753 |
| GGUCACGUCUCAAUCAACUCUUAAGAGGGGGGGAAAACCCCUUUGCCCUCGUUUUCAACAGCUCGCAGUCAAG | -0.212 |
| GGUCACGUCUCAAUCAACUCUAUUCCCAGGGAAAGCCCUGGCUAUUUCAACAGCUCGCAGUCAAG | -0.198 |
| GGUCACGUCUCAAUCAACUCAUUCUCAGGAGUUUUCUCCUGCUUUCUCAACAGCUCGCAGUCAAG | 0.062 |
| GGUCACGUCUCAAUCAACUCUAUUUCAGGAGUUUUCUCCUGCUAUGUCAACAGCUCGCAGUCAAG | 0.0991 |
| GGUCACGUCUCAAUCAACUCUAUUUCCAGGGAAAUCCCUGGUUAAUUCAACAGCUCGCAGUCAAG | 0.168 |
| GGUCACGUCUCAAUCAACUCUUUUUCAGGAGUUUACUCCUGCAUACUCAACAGCUCGCAGUCAAG | 0.126 |
| GGUCACGUCUCAAUCAACUCUAUUCCCAGGGAAAUCCCUGGCUUAUUCAACAGCUCGCAGUCAAG | -0.0659 |
